Measured values published in PubChem BioAssay AID1671194 (National Center for Advancing Translational Sciences (NCATS), 2021).
Screen size: about 140,000 compounds; about 240 (0.17%) were called active. Inconclusive results, whose numbers are uncertain, are shown with a selection of clear calls. The call rests on the fitted dose curve; in most records, active means well fitted inhibition curve with a large enough effect; inconclusive means small, poorly fitted or top-dose-only effect; inactive means no such curve, though single readings can be large or run the other way. Potencies beside an inconclusive call are fits to weak or partial responses and may not hold up.

Test: Primary qHTS assay for inhibitors of alpha-synuclein gene (SNCA) expression; further: nearly all actives have a fitted effect of over 45% in size
Settings: HEK-293 SNCA-luciferase knock-in, luminescence, 24 h; series mostly up to 57.2 µM
Potency means the concentration at half of the fitted maximal effect; tags describe the fitted curve by direction and shape.

Q: For `CNC(=O)c1cc(Oc2ccc(NC(=O)Nc3ccc(Cl)c(C(F)(F)F)c3)c(F)c2)ccn1`, which Potency is on record?
A: inconclusive: 3.41 µM [inhibitor, full curve]

Q: For `COCCNC(=O)c1nc(-c2ccc(F)cc2)c2ccccn12`, which Potency is on record?
A: inactive

Q: With `COCc1noc(CCNC(=O)C2CCN(C(=O)C3CC3)CC2)n1` as the compound, how does the Potency read?
A: inconclusive: 25.1 µM [inhibitor, single point]

Q: For `NC(=O)N1CCCC(C(=O)N2CCN(c3nsc4ccccc34)CC2)C1` (stereo unspecified), which Potency is on record?
A: inconclusive: 20 µM [inhibitor, partial curve]

Q: With `NC(=O)c1ccc(CC2CCN(S(=O)(=O)c3ccc4c(c3)CCC4)CC2)cc1` as the compound, how does the Potency read?
A: inactive

Q: For `O=c1c2c(n(Cc3ccccc3)n1-c1ccccc1)CN(Cc1ccc3c(c1)CCO3)CC2`, which Potency is on record?
A: inconclusive: 8.91 µM [inhibitor, partial curve]

Q: Which Potency does the source give for `CCOc1cc(=O)n2c(c1C(=O)Nc1ccc(Cl)cc1Cl)CCCC2` here?
A: inconclusive: 10 µM [inhibitor, partial curve, poor fit]

Q: With `CCOC(=O)c1c(NC(=O)c2nc(SC(C)C)ncc2Cl)sc2c1CCCC2` as the compound, how does the Potency read?
A: inconclusive: 35.5 µM [inhibitor, single point]

Q: For `Cc1ccc(C(=O)N2CCCC3(C2)C(=NC2CCCC2)NC(=O)N3c2cc(F)cc(F)c2)cc1` (stereo unspecified), which Potency is on record?
A: inactive

Q: Which Potency does the source give for `Cc1cccc(-c2nocc2CCC(=O)N2CCN(c3cccc(C)c3)CC2)c1` here?
A: inactive

Q: For `CC(C)NC(=O)c1ccc2oc(-c3ccncc3)nc2c1`, which Potency is on record?
A: inactive

Q: With `CCN(CC)C(=O)Cn1c(=O)n(Cc2ccc(C(=O)NCc3ccccc3Cl)cc2)c(=O)c2ccccc21` as the compound, how does the Potency read?
A: inconclusive: 7.08 µM [inhibitor, single point]

Q: For `CC1(C(=O)NCc2cccnc2)CCCc2cnc(Nc3ccccc3F)nc21` (stereo unspecified), which Potency is on record?
A: inconclusive: 25.1 µM [inhibitor, partial curve, poor fit]

Q: With `CN1C[C@@H]2CCCN3CCC[C@@H]([C@H]23)[C@H]1CCCC(=O)NCc1ccccc1` as the compound, how does the Potency read?
A: inconclusive: 8.91 µM [inhibitor, single point]

Q: Which Potency does the source give for `CCOC(=O)c1ccc(NC(=O)N2Cc3[nH]cnc3C[C@H]2c2nc(-c3ccc(C)cc3)no2)cc1` here?
A: inconclusive: 1.78 µM [inhibitor, full curve, poor fit]

Q: Which Potency does the source give for `CN(C)C[C@@H]1CN(c2ccncn2)C[C@H]1NC(=O)C1CC=CCC1` (stereo partly specified) here?
A: inconclusive: 3.16 µM [inhibitor, full curve]

Q: With `CC(C)c1ccc(Nc2c(-c3ccccc3O)nc3cnccn23)cc1` as the compound, how does the Potency read?
A: inconclusive: 39.8 µM [inhibitor, partial curve, poor fit]

Q: With `O=C(Cc1c[nH]c2ncc(-c3cn[nH]c3)cc12)NCc1cccnc1` as the compound, how does the Potency read?
A: inactive

Q: With `COc1cc(=O)n2c(c1C(=O)N1CCN(c3ccccc3C)CC1)CCCC2` as the compound, how does the Potency read?
A: inconclusive: 14.1 µM [inhibitor, partial curve, poor fit]

Q: With `CCCCOC(=O)c1ccc(NC(=O)Cc2coc3ccc(C(C)C)cc23)cc1` as the compound, how does the Potency read?
A: inconclusive: 25.1 µM [inhibitor, single point]

Q: For `COc1ccc(CCC(=O)N2c3ccccc3CC2c2nc(C3CC3)no2)cc1` (stereo unspecified), which Potency is on record?
A: inactive

Q: Which Potency does the source give for `Cc1ccc2c(c1)N(C(=O)N1CCC(C(=O)NCc3ccco3)CC1)CC(C)O2` (stereo unspecified) here?
A: inconclusive: 39.8 µM [inhibitor, partial curve, poor fit]

Q: Which Potency does the source give for `Cc1ccc(-c2noc([C@@H]3Cc4nc[nH]c4CN3Cc3ccc(C(=O)O)cc3)n2)cc1` here?
A: inconclusive: 2.51 µM [inhibitor, full curve, poor fit]

Q: Which Potency does the source give for `CCc1noc(-c2nc(-c3ccc4c(c3)OCO4)no2)n1` here?
A: inactive

Q: With `COc1ccccc1Cn1ccn2nc3c(c2c1=O)CCCC3` as the compound, how does the Potency read?
A: inactive

Q: Which Potency does the source give for `Cc1ncsc1C(=O)N1CCC2(CC1)OC(=O)N(Cc1cccnc1)C2(C)c1ccccc1` (stereo unspecified) here?
A: inactive

Q: For `COc1cccc(-c2nn(C)c3sc(C(=O)N4CCN(c5cccc(C)c5)C(C)C4)cc23)c1` (stereo unspecified), which Potency is on record?
A: inconclusive: 35.5 µM [inhibitor, single point]

Q: For `Cc1ccc(C)c(N2CCN(C(=O)c3cc(S(=O)(=O)N4CCCC4)cn3C)CC2)c1`, which Potency is on record?
A: inconclusive: 22.4 µM [inhibitor, partial curve, poor fit]

Q: Which Potency does the source give for `COc1cc(C(=O)N2CCc3c([nH]c4ccccc34)C2c2ccccc2)cc(OC)c1OC` (stereo unspecified) here?
A: inconclusive: 39.8 µM [inhibitor, single point]

Q: Which Potency does the source give for `Cc1cccc(N(CC(=O)NCCSc2ccc(Cl)cc2)S(=O)(=O)c2ccccc2)c1C` here?
A: inconclusive: 39.8 µM [inhibitor, single point]

Q: Which Potency does the source give for `CC(=O)Nc1ccc(C(=O)NC2CCN(c3cc(-c4cccs4)[nH]n3)C2)cc1` (stereo unspecified) here?
A: inconclusive: 7.08 µM [inhibitor, partial curve, poor fit]

Q: For `O=C(c1cc(Cl)ccc1F)N1CCC(OC2CCN(Cc3ccccc3)CC2)CC1`, which Potency is on record?
A: inactive

Q: For `C[C@]1(CO)[C@H]2Cc3sc(-c4ccccc4)nc3[C@@H](CC(=O)N3CCOCC3)[C@]2(C)CC[C@H]1O`, which Potency is on record?
A: inconclusive: 3.16 µM [inhibitor, single point]

Q: With `CCNC(=O)N1CCC(Cc2ccc(C(=O)NCCc3c[nH]c4ccccc34)cc2)CC1` as the compound, how does the Potency read?
A: inactive

Q: Which Potency does the source give for `CC(C)NC(=O)C[C@@H]1C[C@H]2O[C@H](CNC(=O)N3CCOCC3)[C@@H](O)[C@H]2O1` here?
A: inconclusive: 10 µM [inhibitor, single point]

Q: Which Potency does the source give for `O=C(Nc1ccc(F)cc1)C1CCCN(Cc2cccc(-c3ccc(F)cc3F)c2)C1` (stereo unspecified) here?
A: inconclusive: 12.6 µM [inhibitor, partial curve, poor fit]

Q: For `CN1CCC2(Cc3ccccc3CN(C(=O)Cc3ccccc3)C2)C1` (stereo unspecified), which Potency is on record?
A: inactive

Q: Which Potency does the source give for `Cc1oc(-c2ccc(C(=O)NCc3ccccc3)cc2)nc1CS(=O)(=O)c1ccccc1` here?
A: inconclusive: 2.24 µM [inhibitor, single point]

Q: Which Potency does the source give for `COc1ccccc1-n1c(=O)c(C(=O)NCCc2ccc(F)cc2)nc2cccnc21` here?
A: inactive

Q: Which Potency does the source give for `CCc1ccc(NC(=O)Cn2ccn3nc4c(c3c2=O)CCCCC4)cc1` here?
A: inconclusive: 20 µM [inhibitor, partial curve, poor fit]

Q: Which Potency does the source give for `CCCc1nc(C2CC(=O)N(C3CCCCC3)C2)no1` (stereo unspecified) here?
A: inconclusive: 1.78 µM [inhibitor, partial curve, poor fit]
